Reference: ChEMBL document CHEMBL1157539, “Thousands of chemical starting points for antimalarial lead identification” (Nature, 2010)
Over roughly 13,000 compounds, “IFI” has its median near 4; the highest 2% begin near 17. The list shows a part of the results.

test: GSK_TCMDC: Inhibition Frequency Index (IFI). The number of non-kinase HTS assays where a compound showed > 50 % inhibition, expressed as a percentage of the number of such assays in which the compound was tested (-0 is zero); type: functional

| Structure (SMILES) | IFI [%] |
| --- | --- |
| COc1cc(-c2nc(-c3ccc(C(=O)c4ccc(F)cc4)cc3)c(-c3ccccc3)[nH]2)cc(OC)c1O | 5.07 |
| CCNc1cc(C(=O)N[C@@H](Cc2ccccc2)[C@H](O)CNC(C)(C)Cc2cccc(OC)c2)cc(N2CCCC2=O)c1 | 2.17 |
| O=C(Nc1cccnc1)c1ccc(-c2cc3ccncc3cc2OC2CCNCC2)s1 | 2.7 |
| O=C(Nc1cccc(-c2nn3ccccc3c2-c2ccnc(Nc3cccc(F)c3)n2)c1)c1c(F)ccc(F)c1Cl | 4.26 |
| CCCc1ccc(NC(=O)c2ccc(CN3CCCN(CC4CCCCC4)CC3)cc2)cc1 | 14.4 |
| COc1ccc2nccc([C@@H](O)CN3CCC(NC(=O)COc4nc(SCc5ccc(F)cc5)nc5c4CCC5)CC3)c2c1 | 2.14 |
| Cc1c(CNCCCNc2nc3ccccc3[nH]2)[nH]c2cc(Cl)cc(Cl)c12 | 7.69 |
| CC(C)(C)c1ccc(NC(=O)c2ccc(CN3CCCN(Cc4cccc(O)c4)CC3)cc2)cc1 | 16.9 |
| N#Cc1ccc2c(c1)CCN(CCC1CCC(NC(=O)/C=C/c3cccc4cc[nH]c34)CC1)CC2 (stereo unspecified) | 3.73 |
| CCOc1cc(C(=O)NCCN(CC)c2cccc(C)c2)ccc1-c1nc2cc(Cl)ccc2[nH]1 | 0.71 |
| CCCNC(=O)C1CCN(C(c2ccccc2)c2ccc(Cl)c(Cl)c2)CC1 (stereo unspecified) | 2.74 |
| O=C(c1cc(C(=O)Nc2ccccc2)c(=O)n(-c2ccccc2)c1)c1cc(Cl)ccc1O | 5.5 |
| CCCC1(C)CSc2ccccc2C(c2ccccc2)N1 (stereo unspecified) | 1.38 |
| Cc1cc(N2CCN(C)CC2)nc2ccc(NC(=O)c3cccc(N(C)C)c3)cc12 | 4.31 |
| CN(C)CCNC(=O)c1cccc(-c2cnc3ccc(NCc4ccc(Cl)c(Cl)c4)nn23)c1 | 9.02 |
| COc1ccc2nccc([C@@H](O)CN3CCC(NCc4cnc5snnc5c4)C(F)C3)c2c1 (stereo partly specified) | 4.65 |
| Cc1c(S(=O)(=O)Nc2ccc3nccc(N4CCN[C@H](C)C4)c3c2)sc2ccc(Cl)cc12 | 4.44 |
| CN(C(=O)c1ccccc1)C1c2cc(C#N)ccc2OC(C)(C)C1O (stereo unspecified) | 0.74 |
| CCc1ccc(-c2nc3cc(NC(=O)c4cc([N+](=O)[O-])cc([N+](=O)[O-])c4)ccc3o2)cc1 | -0 |
| COc1ccc(CNCc2ccccc2)cc1-c1ccc(OC)c(S(=O)(=O)NCCN2CCCC2)c1 | 5.71 |
| CC1CN(c2cccc3c2nc(-c2cncc(C#N)c2)n3CCNCc2ccccc2)CC(C)O1 (stereo unspecified) | -0 |
| O=C(Nc1ccc(-c2cccc(-c3nc4cc(F)ccc4[nH]3)c2)cc1)Nc1ccc(F)c(F)c1F | 5 |
| CC1CCC2(CC1)N=C(N)N=C(N)N2OCc1ccc(Br)c2ccccc12 (stereo unspecified) | 9.35 |

| Structure (SMILES) | IFI [%] |
| --- | --- |
| c1ccc(-c2ccc3c(Nc4ccc5[nH]ccc5c4)ccnc3c2)nc1 | 1.42 |
| Cc1ccc2[nH]c(-c3cc(-c4ccc(OCc5ccccc5)cc4)cnc3N)nc2c1 | 3.08 |
| CSc1nc2nc(C)c(Cc3cccc(C(F)(F)F)c3)c(C)n2n1 | 1.37 |
| CCOc1cc(C(=O)N[C@@H](Cc2ccccc2)[C@H](O)CNCc2cccc(OC)c2)cc(N2CCCCS2(=O)=O)c1 | 4.51 |
| CCN1CCN(Cc2c(O)ccc3c(=O)c(Oc4cc(C)cc(C)c4)c(C(F)(F)F)oc23)CC1 | 1.5 |
| COc1cc(Nc2nccc(N3CCC(NC(=O)c4cccc(C#N)c4)C3)n2)cc(OC)c1OC (stereo unspecified) | 3.08 |
| CCOC(=O)c1cnc2c(OC)cc(OC)c(Cl)c2c1Nc1ccccc1 | 2.8 |
| CCCc1cc(N2CCC(N(CC)CC)C2)nc(Nc2ccc(OC)cc2)n1 (stereo unspecified) | 1.2 |
| N#Cc1cccc(Nc2nccc(NCC(O)c3ccc(C(F)(F)F)cc3)n2)c1 (stereo unspecified) | 20.4 |
| Cc1nc(-c2cccc(Nc3nccc(NCC(O)c4cccc(C(F)(F)F)c4)n3)c2)cs1 (stereo unspecified) | 11 |
| Cc1cccc(N2C(N)=NC(N)=NC2(C)C)c1C | -0 |
| CS(=O)(=O)c1ccc(CNCc2ccc(-c3cccc(-c4nc5ccccc5[nH]4)c3)cc2)cc1 | 6.8 |
| c1ccc2c3c(ccc2c1)Sc1c(ccc2ccccc12)N3 | 5.07 |
| CCc1cn2c3c(cc(C(=O)N[C@@H](Cc4cc(F)cc(F)c4)[C@H](O)CNC4CC4)cc13)N(C)S(=O)(=O)CC2 | 2.94 |
| CS(=O)(=O)c1ccc(-c2nc(NCC3CCCCC3)cc(C(F)(F)F)n2)cc1 | 4.44 |
| N#Cc1ccc(N[C@@H](CC2CCCCC2)C(=O)NCc2cc(F)c(F)cc2F)c2ccccc12 | 4.76 |
| COc1ccc(C=Cc2cc(=N)c3ccccc3[nH]2)cc1Br | 2.82 |
| Fc1ccc(Nc2nnc(CNC3CCN(Cc4ccc(Cl)c(Cl)c4)CC3)[nH]2)cc1 | 10 |
| CCc1ccc(NC(=O)c2cccc(CN3CCCN(Cc4cccc(O)c4)CC3)c2)cc1 | 5.63 |
| COc1cc(F)c2ncc(Cl)c([C@H](O)CN3CCC(NCc4cc5c(cn4)OCCO5)CC3)c2c1 | 0.88 |
| O=C(N[C@@H](CC1CCCCC1)C(=O)NCCN1CCCCC1)c1ccc(O)c(-c2cccc(C(F)(F)F)c2)c1 | 2.86 |
| O=C(NC(=O)c1ccccc1O)c1ccccc1O | 0 |
| COc1cccc(NC(=O)c2ccc(NCCCN3CCC(C)CC3)c([N+](=O)[O-])c2)c1 | 1.47 |

| Structure (SMILES) | IFI [%] |
| --- | --- |
| c1cc(CN2CCC(CCN3CCCCC3)CC2)cc(-c2csc(-c3nc4ccccc4[nH]3)c2)c1 | 6.94 |
| Cc1cc2nc(-c3ccc(C(=O)NCc4cccc(C(F)(F)F)c4)cc3)[nH]c2cc1C | 3.01 |
| O=C(Cc1ccc(NC(=O)c2ccc(O)c(-c3ccc(Cl)c(Cl)c3)c2)cc1)NCCN1CCCCC1 | 1.48 |
| N=C(NCCc1ccc(Cl)cc1)c1ccc(Cl)c(Cl)c1 | 1.49 |
| C=CCOc1cc(Cc2cnc(N)nc2N)cc(OC)c1OC | 0.73 |
| O=C(Nc1ccc(S(=O)(=O)N2CCCCCC2)cc1)c1cc(-c2ccccc2O)n[nH]1 | 4.41 |
| O=C(Nc1cccc(F)c1)NC1CCN(c2ccnc3cc(Cl)ccc23)C1 (stereo unspecified) | -0 |
| CCC1N=C(N)N=C(N)N1OCc1cccc2ccccc12 (stereo unspecified) | 2.16 |
| COc1cc([N+](=O)[O-])ccc1NC(=O)c1cc(Cl)ccc1O | 35.6 |
| CC(C)C1=NC(=O)c2cc([N+](=O)[O-])ccc2CN1 | 0.67 |
| c1ccc(OCCOc2ccc(Nc3ccnc4cc5ccccc5cc34)cc2)cc1 | 9.56 |
| O=C(Nc1cccc(-c2cccc(-c3ccc(F)cc3)n2)c1)c1ccc([N+](=O)[O-])o1 | 19.1 |
| COc1ccc(CNCc2cccc(-c3csc(-c4nc5ccccc5[nH]4)c3)c2)cc1 | 2.86 |
| CN1CCC(Oc2cc(CN3CC[C@H](NC(=O)c4ccc(Cl)c(Cl)c4)C3)ccc2I)C1 (stereo partly specified) | 16.7 |
| COc1cc2c(cc1C(F)(F)F)N(C(=O)Nc1cc(F)cc(-c3cccnn3)c1)CC2 | 0.7 |
| NC1CCCN(Cc2cccc(-c3ccc(-c4nc5ccccc5[nH]4)s3)c2)C1 (stereo unspecified) | 4.29 |
| CCOc1ccc(NC(=O)c2ccc(CN3CCCN(Cc4cccc(O)c4)CC3)cc2)cc1 | 9.02 |
| CC(C)(CNC(=O)[C@@H]1CCCN(Cc2ccc(Cl)cc2)C1)c1nc(-c2ccc(Cl)c(O)c2)c(-c2ccncc2)[nH]1 | 2.19 |
| O=C(NC(CCCN1CCC(c2ccccc2)CC1)c1ccc(Cl)c(Cl)c1)c1cc(C(F)(F)F)cc(C(F)(F)F)c1 (stereo unspecified) | 4.76 |
| CN1CCC(Oc2ccc(CN3CC[C@H](NC(=O)c4ccc(Cl)c(Cl)c4)C3)cc2Cl)C1 (stereo partly specified) | 10 |
| Cc1[nH]c(C)c(-c2ccc(-c3ccccc3C(F)(F)F)nc2)c(=O)c1Br | 0.92 |
| O=C(C=Cc1ccc(Cl)c(Cl)c1)NCCCCCN1CCC(CCCNC(=O)C2CC2c2ccccc2)CC1 (stereo unspecified) | 5.67 |
| CN(C)c1ccnc2ccc(NC(=O)Nc3ccnc4ccccc34)cc12 | 6.02 |

| Structure (SMILES) | IFI [%] |
| --- | --- |
| O=S(=O)(Nc1cc2c(cc1O)CCN(C1CCC1)CC2)c1ccc(Oc2ccc(F)cc2)cc1 | 3.08 |
| C[C@@H](C(N)=O)N1CCCCC1c1ccc(OCc2cccc(F)c2)cc1 (stereo partly specified) | 33.8 |
| Cc1cc(OCCCN2CCC(NC(=O)c3ccc(Br)cc3)C2)c2ccccc2n1 (stereo unspecified) | 0.9 |
| COc1ccc(C(=O)CCc2ccc(O)cc2)cc1 | 0 |
| O=C(NC1c2ccccc2Oc2ccccc21)c1ccccc1O | 0.74 |
| COC(=O)[C@@H](NC(=O)[C@H](CC(C)C)Nc1ccc(C#N)c2ccccc12)c1ccc(O)cc1 | 4.85 |
| CNC(=O)C1Cc2c([nH]c3ccc(Cl)cc23)C2(CCN(CCc3ccccc3)CC2)N1 (stereo unspecified) | 5.97 |
| CN1CCN(S(=O)(=O)c2ccc3nccc(Nc4ccc(Oc5ccccc5)cc4)c3c2)CC1 | 0.72 |
| O=C(CNc1ccc(Cl)c(S(=O)(=O)N2CCCC2)c1)Nc1ccc(Br)cc1F | 5.97 |
| O=[N+]([O-])c1cccc(CNC2CCN(Cc3ccc4ccccc4c3)CC2)c1 | 2.13 |
| CN(C)CC(=O)NCC(NCCCNc1cc(=O)c2ccccc2[nH]1)c1cc(Br)cc(Br)c1 (stereo unspecified) | 8.03 |
| Cc1nc2nc(N)nc(N)c2c(C)c1Cc1ccccc1Cl | 2.22 |
| Cc1cc(N2CC=CCC2)nc(NC(=N)Nc2ccc(Cl)cc2)n1 | 4.29 |
| CC1(C)N=C(N)N=C(N)N1c1cc(Cl)c(Cl)c(Cl)c1 | 2.88 |
| CC(C)(C)c1ccccc1SC1=C(O)CC2(CCNCC2)OC1=O | 0.71 |
| Cc1cc(N2CCCC2)nc(Nc2ccc(NC(=O)C(C)(C)C)cc2)n1 | 2.38 |
| CC(C)CNC(=S)N1CCCN(c2nc3ccc(Cl)cc3s2)CC1 | 4.35 |
| CNC(=O)c1ccccc1Nc1nc(Nc2ccc(N3CCOCC3)cc2)ncc1Cl | 8 |
| COC1CCC(C(=O)Nc2ccc(-c3cccc(-c4nc5cccc(C)c5[nH]4)c3)cc2)CC1 (stereo unspecified) | 7.14 |
| CC1(C)N=C(NC(=O)Nc2ccc([N+](=O)[O-])cc2)N=C(N)N1OCc1cccc2ccccc12 | 1.46 |
| CCc1nc2ccc(C(=O)OC)nc2n1Cc1ccc2oc(-c3ccccc3N)c(Br)c2c1 | 10.8 |
| Cc1[nH]c(C)c(-c2ccc(-c3ccc(Cl)cc3)nc2)c(=O)c1Cl | 0.92 |
